Results published in the supplement of paper PMC10441789.
Some of the results follow. Antibody binding of pooled human sera (four to six donors per pool; dilution not stated) to peptides of the Trypanosoma cruzi antigen TSSA on microarrays. Quantile-normalised fluorescence in arbitrary units, mean of duplicate arrays; higher = more binding. No active / inactive call. The uninfected pools are read here as the healthy donors of the same country. The strongest signals lie near the top of the scale (about 60,000).

What was measured:
Test in all cases: antibody binding signal (normalised fluorescence) (arbitrary fluorescence units); higher = stronger serum antibody binding to peptide
[1] = test system: pooled sera of chronic Chagas disease patients, Argentina
Experimental: (§1)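 Microarray of 15-residue peptides over residues 30-55 of Trypanosoma cruzi TSSAII, each with 1 to 10 substitutions at naturally variable positions, probed with one serum pool per country.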

[2] = test system: pooled sera of chronic Chagas disease patients, Bolivia
Experimental: as §1

[3] = test system: pooled sera of chronic Chagas disease patients, Brazil
Experimental: as §1

[4] = test system: pooled sera of chronic Chagas disease patients, Colombia
Experimental: as §1

[5] = test system: pooled sera of chronic Chagas disease patients, Mexico
Experimental: as §1

[6] = test system: pooled sera of chronic Chagas disease patients, USA
Experimental: as §1

[7] = test system: pooled sera of uninfected people, Argentina
Experimental: as §1

[8] = test system: pooled sera of uninfected people, Bolivia
Experimental: as §1

[9] = test system: pooled sera of uninfected people, Brazil
Experimental: as §1

[10] = test system: pooled sera of uninfected people, Mexico
Experimental: as §1

[11] = test system: pooled sera of uninfected people, USA
Experimental: as §1

Sequence | antibody binding signal [1] | antibody binding signal [2] | antibody binding signal [3] | antibody binding signal [4] | antibody binding signal [5] | antibody binding signal [6] | antibody binding signal [7] | antibody binding signal [8] | antibody binding signal [9] | antibody binding signal [10] | antibody binding signal [11]
TDKKTAAGETPSPSG | 323 | 306 | 312 | 339 | 337 | 3000 | 125 | 195 | 352 | 388 | 1970
SGKDNKPATGEAPSQ | 46300 | 50600 | 51300 | 506 | 401 | 44400 | 1160 | 1150 | 331 | 420 | 162
SGKDKKPATGGAPSQ | 1230 | 317 | 591 | 883 | 947 | 1920 | 236 | 238 | 98.4 | 79.8 | 92.7
GKEKKPATGGAPSQS | 2780 | 280 | 637 | 1700 | 4030 | 3280 | 204 | 194 | 94.5 | 96 | 245
SGTENKAAAGGTPSQ | 39600 | 6400 | 13700 | 2950 | 923 | 3740 | 313 | 441 | 775 | 193 | 131
TDKKTAAGGTPSQPG | 1700 | 277 | 364 | 11600 | 415 | 1680 | 407 | 100 | 859 | 1040 | 182
GTENKAATGETPSQP | 41300 | 10600 | 43100 | 1260 | 1470 | 13900 | 119 | 382 | 304 | 150 | 109
KTATGGTPSPSGASS | 442 | 297 | 795 | 360 | 1990 | 316 | 347 | 112 | 160 | 91.9 | 259
GTEKKPATGEAPSPS | 43900 | 46700 | 48300 | 3230 | 5850 | 38900 | 904 | 1720 | 1990 | 352 | 702
SSTPPSGTEKKPAAG | 46300 | 8160 | 46200 | 766 | 24900 | 12100 | 1390 | 1100 | 567 | 285 | 1050
TDNKAAAGGTPSPSG | 312 | 233 | 250 | 3120 | 248 | 1200 | 94.9 | 312 | 1320 | 147 | 108
ENKTATGETPSQPGA | 2160 | 5680 | 36600 | 281 | 233 | 8460 | 138 | 948 | 350 | 272 | 241
GKENKPATGETPSPS | 38400 | 15400 | 35400 | 8100 | 9650 | 32300 | 759 | 627 | 241 | 2060 | 2150
TSSTPPSGTDNKPAT | 44300 | 50200 | 49000 | 5940 | 14100 | 32200 | 1730 | 702 | 574 | 1200 | 529
SGTDKKPAAGGTPSQ | 767 | 4280 | 24900 | 17800 | 3100 | 1430 | 260 | 232 | 2070 | 3380 | 369
DKKPATGEAPSQSGA | 44900 | 49300 | 47300 | 163 | 210 | 42400 | 829 | 734 | 233 | 212 | 166
PSGKENKAATGETPS | 6070 | 6900 | 15600 | 3550 | 4760 | 13000 | 5080 | 3650 | 251 | 394 | 345
GKDNKAAAGETPSQS | 870 | 260 | 5360 | 1740 | 1910 | 1680 | 163 | 287 | 100 | 98.9 | 89.5
TEKKAAAGGTPSQSG | 784 | 206 | 214 | 6530 | 634 | 2240 | 181 | 110 | 1740 | 194 | 229
TEKKAATGGTPSPPG | 1710 | 575 | 404 | 3020 | 1020 | 1820 | 293 | 157 | 692 | 148 | 235
KKTATGGTPSPSGAS | 332 | 240 | 452 | 1260 | 220 | 1230 | 284 | 114 | 150 | 88.4 | 274
GTEKKTATGGAPSPS | 1420 | 235 | 980 | 3760 | 1140 | 1440 | 322 | 629 | 115 | 145 | 133
KKPATGGTPSQPGAS | 328 | 582 | 1080 | 1030 | 255 | 250 | 528 | 502 | 614 | 256 | 360
TENKTAAGEAPSPPG | 25100 | 518 | 6130 | 192 | 225 | 9020 | 180 | 124 | 215 | 129 | 128
TSSTPPSGKEKKTAT | 11800 | 178 | 261 | 371 | 16100 | 683 | 304 | 260 | 103 | 102 | 121
TPPSGKDNKPATGGT | 4990 | 3700 | 29100 | 255 | 24400 | 13600 | 479 | 1210 | 776 | 386 | 258
TDNKAATGGAPSQSG | 493 | 515 | 2460 | 538 | 642 | 1450 | 236 | 351 | 260 | 188 | 92.1

Sequence | antibody binding signal [1] | antibody binding signal [2] | antibody binding signal [3] | antibody binding signal [4] | antibody binding signal [5] | antibody binding signal [6] | antibody binding signal [7] | antibody binding signal [8] | antibody binding signal [9] | antibody binding signal [10] | antibody binding signal [11]
KDNKAAAGEAPSQSG | 460 | 3570 | 17800 | 181 | 173 | 10900 | 377 | 1050 | 139 | 94.7 | 111
GTENKAAAGGTPSQP | 40600 | 954 | 2240 | 3200 | 816 | 1980 | 245 | 390 | 1200 | 601 | 93.3
TDKKTAAGGTPSQSG | 1620 | 248 | 431 | 11300 | 441 | 1820 | 277 | 98.8 | 905 | 500 | 175
KKPAAGEAPSQPGAS | 1950 | 6970 | 35700 | 268 | 272 | 8280 | 329 | 203 | 93.2 | 71.9 | 318
TISTPPSGTDKKAAT | 38700 | 5410 | 34700 | 8280 | 39400 | 4680 | 558 | 148 | 222 | 2640 | 257
KENKAAAGETPSQSG | 175 | 215 | 10700 | 184 | 154 | 2430 | 97.5 | 175 | 115 | 129 | 111
GKDNKAAAGGTPSPS | 290 | 213 | 222 | 1460 | 819 | 1090 | 138 | 320 | 656 | 85.6 | 101
TSSTPPSGTEKKPAT | 44700 | 7870 | 43300 | 780 | 38500 | 11800 | 1330 | 807 | 293 | 200 | 915
KPAAGETPSPSGASS | 306 | 236 | 3900 | 241 | 2900 | 1010 | 199 | 264 | 192 | 140 | 633
GTDNKPAAGGAPSQS | 2200 | 474 | 43800 | 2300 | 344 | 621 | 186 | 636 | 576 | 578 | 163
KENKTAAGEAPSPSG | 189 | 204 | 755 | 901 | 231 | 6640 | 234 | 130 | 143 | 112 | 138
DKKPAAGGTPSPPGA | 292 | 186 | 275 | 5230 | 287 | 1050 | 166 | 268 | 2680 | 103 | 188
ENKTAAGETPSQSGA | 122 | 775 | 3060 | 192 | 258 | 1820 | 108 | 210 | 214 | 160 | 128
GKDKKTATGEAPSQS | 6310 | 2990 | 7120 | 2410 | 2300 | 14800 | 155 | 76 | 100 | 81.1 | 81.1
GKENKPAAGGAPSQS | 1150 | 554 | 4880 | 2140 | 3560 | 6650 | 903 | 181 | 139 | 168 | 168
GKDKKAAAGETPSPP | 316 | 190 | 282 | 690 | 841 | 1160 | 114 | 87.7 | 89.2 | 81.5 | 110
DKKPAAGETPSPSGA | 520 | 166 | 3700 | 169 | 284 | 2160 | 157 | 233 | 190 | 136 | 519
SGKDKKTAAGETPSQ | 537 | 393 | 725 | 936 | 823 | 1470 | 143 | 122 | 101 | 104 | 114
SGKENKTAAGGTPSQ | 3820 | 395 | 19600 | 9620 | 4410 | 21300 | 5100 | 1110 | 425 | 745 | 207
EKKPATGETPSQPGA | 33900 | 18400 | 38400 | 340 | 278 | 24800 | 296 | 1090 | 481 | 2060 | 517
GKENKAATGGAPSQP | 2550 | 691 | 17800 | 5050 | 4750 | 14200 | 326 | 180 | 105 | 125 | 123
KEKKAATGGTPSQSG | 338 | 223 | 189 | 243 | 217 | 481 | 157 | 92.5 | 203 | 88.5 | 112
EKKPAAGETPSPPGA | 782 | 298 | 6920 | 455 | 306 | 1950 | 161 | 805 | 218 | 233 | 914
EKKPATGGAPSPPGA | 1590 | 1590 | 1110 | 2550 | 1150 | 2290 | 495 | 1500 | 218 | 168 | 613
GKEKKTAAGGAPSPP | 634 | 202 | 228 | 3260 | 1240 | 1390 | 118 | 101 | 108 | 96.1 | 106
GKDKKAATGGAPSPS | 522 | 182 | 201 | 1030 | 996 | 886 | 215 | 105 | 131 | 78.6 | 98.9
TDKKAATGEAPSPPG | 19500 | 36400 | 30000 | 357 | 298 | 21700 | 646 | 122 | 232 | 138 | 169
